# Measurements taken from the supplement of paper PMC3334620.
# Whole data set: some 33,000 sequences, median “E-score (-0.5 to 0.5)” near -0.043, cut for the highest 2% near 0.37. Some of the results follow.
# Target: T1, Upc2 (UniProt Q12151)
# T1 sequence: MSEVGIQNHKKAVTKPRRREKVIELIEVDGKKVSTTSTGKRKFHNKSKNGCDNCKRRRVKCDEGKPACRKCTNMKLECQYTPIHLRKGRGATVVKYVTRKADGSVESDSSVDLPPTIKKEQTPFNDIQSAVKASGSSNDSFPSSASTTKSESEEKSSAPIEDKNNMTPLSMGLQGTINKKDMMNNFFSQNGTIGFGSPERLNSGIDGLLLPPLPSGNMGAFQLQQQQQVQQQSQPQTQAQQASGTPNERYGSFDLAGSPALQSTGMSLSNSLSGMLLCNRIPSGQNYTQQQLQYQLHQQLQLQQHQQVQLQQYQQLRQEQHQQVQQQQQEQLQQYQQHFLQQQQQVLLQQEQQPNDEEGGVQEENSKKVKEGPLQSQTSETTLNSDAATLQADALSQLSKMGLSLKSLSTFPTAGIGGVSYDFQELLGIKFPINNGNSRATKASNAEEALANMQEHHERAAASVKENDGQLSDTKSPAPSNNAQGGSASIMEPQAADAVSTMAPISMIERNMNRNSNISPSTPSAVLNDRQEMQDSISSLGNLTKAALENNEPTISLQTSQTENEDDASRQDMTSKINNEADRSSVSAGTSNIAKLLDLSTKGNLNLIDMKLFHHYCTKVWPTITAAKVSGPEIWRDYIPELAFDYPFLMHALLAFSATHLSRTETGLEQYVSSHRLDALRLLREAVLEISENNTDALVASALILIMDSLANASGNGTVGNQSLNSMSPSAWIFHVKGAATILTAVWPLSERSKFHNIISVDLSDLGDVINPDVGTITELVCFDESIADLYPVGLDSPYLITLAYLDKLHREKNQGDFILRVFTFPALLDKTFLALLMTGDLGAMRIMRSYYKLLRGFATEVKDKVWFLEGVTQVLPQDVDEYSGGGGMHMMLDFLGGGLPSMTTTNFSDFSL
# Assay: PBM E-score (8-mer binding enrichment) (E-score (-0.5 to 0.5)); higher = stronger / more preferred TF binding; most listed sequences are background and not binding sites
# Details: protein concentration: 200 nM; construct: GST-full length
# In short: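 E-scores (a modified Wilcoxon-Mann-Whitney statistic) were assigned by the Universal PBM Analysis Suite to every ungapped eight-base word pooled with its reverse complement. The input came from universal all-10-mer Agilent arrays made double-stranded by primer extension and probed with GST-tagged yeast transcription factors at about 100-200 nM. Fluorescent anti-GST detected bound protein, and masliner normalised the scans.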
row,Sequence,PBM E-score
1,TGAGCTAA,-0.173
2,AGAGACAA,-0.152
3,AACATGGT,-0.111
4,GGAGCTAA,-0.00672
5,ACTCCTCC,-0.178
6,TCGAAAAA,0.22
7,AGGCATGA,-0.264
8,AAACCGTC,-0.0199
9,TACTTCGA,0.105
10,ACGTAAAC,0.345
11,AATGCTAT,-0.0104
12,GGGCTAGA,-0.136
13,GGTTCCAA,-0.0574
14,ACAACTAG,-0.0657
15,AACAGCGC,0.0168
16,AAGCCTCA,-0.228
17,TCTCCTAA,-0.00947
18,CAGCGCCC,-0.307
19,CTAATTGC,0.0187
20,GTCGGCAA,0.156
21,CCTGTTGC,-0.105
22,GGGTCTCA,-0.36
23,GGGATAAC,-0.0776
24,AATAGGCT,-0.0238
25,AAGACCCG,-0.107

row,Sequence,PBM E-score
1,CAAATGCC,-0.201
2,CCGAGCGA,0.193
3,GAACTCCC,0.129
4,GGGCCTCA,-0.145
5,GGAGCTTA,-0.0696
6,ACTTTATC,0.016
7,AGCTGCAA,-0.26
8,ACCGACTA,0.0499
9,CGATTTGA,0.17
10,GACCCCGA,-0.131
11,GGGTGGAC,-0.204
12,CGCCGTTA,0.251
13,GGTTCCCA,-0.0861
14,GGAATGAC,-0.254
15,ATAACCAC,0.0671
16,GTCACGAC,-0.0899
17,CCCAACAG,-0.24
18,ATTGGAGC,-0.169
19,AAATCAGT,0.0223
20,CAAACGCC,0.141
21,CAGACGAC,0.0855
22,ACGTTAGA,0.0666
23,AAGTCACA,-0.153
24,GTGCCTTA,-0.146
25,AGTACCTC,-0.276

row,Sequence,PBM E-score
1,GTTTAACA,0.246
2,GAACAGGA,-0.129
3,AGTGATAC,0.153
4,ATGTCTAA,-0.133
5,CCTCCACA,-0.239
6,CAAGTTGC,0.137
7,GATACGAC,0.468
8,GGCTTCCC,-0.208
9,AGGTCGAT,0.106
10,ACGTTCAT,0.169
11,AAGAATCT,-0.148
12,GACACCCA,-0.229
13,GGGCCAGA,-0.184
14,ACTCTTAG,-0.149
15,GATCTCCA,-0.174
16,ATCCGCCA,-0.171
17,GATATCGA,0.071
18,GAACCAAC,-0.0128
19,ATCGAATG,-0.143
20,CTATGTAA,-0.115
21,CGATCCAA,0.0303
22,AGCACTAT,-0.0413
23,CACACTTA,-0.00527
24,GAGGAGTA,-0.0426
25,GCAACGTA,0.172

row,Sequence,PBM E-score
1,AGTGGCTG,-0.132
2,AGGCCTGA,-0.17
3,AGTCTATC,-0.159
4,CCCTTAAG,0.0123
5,GGTGAACC,0.0141
6,CTCGTGGC,-0.233
7,CCCCGATA,-0.00163
8,CCTAAGTA,-0.0907
9,AACGGCCT,0.19
10,AGTTAGAA,-0.207
11,CCGGTGTA,0.0319
12,CTAAAAGA,0.17
13,AATAACGC,-0.0432
14,ACAACATC,-0.134
15,TATATTGA,0.001
16,ATCCGATC,0.127
17,GCTTATCA,-0.18
18,ATATACCA,0.0254
19,ATTAATGG,-0.0334
20,GCTGAGTA,-0.21
21,ACTCGTAC,0.472
22,GGCTAACA,0.0623
23,ATACCGAC,0.194
24,CCAACTGG,-0.0518
25,ATTAACTA,-0.0133

row,Sequence,PBM E-score
1,AAATATAC,0.204
2,CGACCAAA,0.261
3,CGTATGGA,0.423
4,AACTAGTT,0.0327
5,GTTCTCCA,-0.109
6,TAGGTGGA,-0.209
7,CCATATAG,-0.0573
8,GGATCATA,-0.223
9,AAAGCTGC,-0.0267
10,ACCGGGCA,-0.185
11,ATGCCTCG,0.162
12,CATAAGAG,0.00546
13,AGAAGCTC,0.0431
14,AACGGTGG,0.241
15,AGAGAGGG,-0.245
16,CATGCAGC,-0.133
17,GGAGTGCC,-0.101
18,GCCCGACA,-0.215
19,ACGATGAC,0.286
20,CGCGTCCG,-0.082
21,AACCGATG,0.153
22,ATCTTCCC,-0.0334
23,CCAAGATC,0.101
24,GTCAATCA,-0.13
25,AAATGTCT,-0.00329

row,Sequence,PBM E-score
1,AATGAGCC,-0.26
2,CGCTCGTC,0.127
3,ACTGCACG,-0.16
4,GTTCTAAA,0.0629
5,CGGAGTTA,-0.13
6,TCGAGGAA,0.049
7,CCCCGAGA,-0.241
8,AACACTTG,0.0323
9,GCCTACAA,-0.203
10,ACGTTTCC,-0.0121
11,CGTCCGCA,-0.13
12,GATGATTA,-0.0046
13,CGCTCCAA,0.11
14,ACGTTGAC,0.137
15,CAAGGCGG,-0.117
16,AGAAGCTA,-0.0305
17,ATACCCAA,-0.0213
18,AATGGCAC,-0.345
19,GTCCCCAA,-0.0271
20,GCAGGTAA,0.0476
21,AATGCGCG,0.0483
22,GTGGTAGA,-0.172
23,CTCGCGCA,0.115
24,ACACGCCT,-0.156
25,ATCTGCTA,-0.0459

row,Sequence,PBM E-score
1,AATGACCG,-0.0692
2,CCGTCGAC,-0.137
3,GCTGATAC,0.102
4,CCCCAGGA,-0.29
5,CGACCCCC,-0.0479
6,GAGGTCAC,-0.187
7,ACCGGTGG,-0.139
8,CCACAGAC,-0.169
9,GGACTCAC,-0.17
10,TAATCACA,-0.221
11,ACGAAAGC,0.32
12,ATGAACCG,0.0683
13,ACCTTAAG,-0.00109
14,CCCCGAAA,-0.13
15,AATCGTCG,0.118
16,CATATAGA,-0.0729
17,ATCTGGTG,-0.254
18,ATGCCCAA,-0.0832
19,ACGCGATC,0.232
20,AGTCTGAT,-0.163
21,CGAGGACA,0.0681
22,GAGACACC,-0.0586
